The source gives no read counts; variants with many changes may rest on few reads.
B1: CPEB3 Ribozyme (parent)
chain: UAACAGGGGGCCACAGCAGAAGCGUUCACGUCGCAGCCCCUGUCAGAUUCUGGUGAAUCUGCGAAUUCUGCUGUAUAUCUC

Variants of: B1
Assay: self-cleavage, relative activity (ratio to wild type); higher = more cleavage; in vitro, sequencing
Outline: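 Relative activity compares each variant's cleaved/total read fraction with that of the unmutated ribozyme. To get these fractions, barcoded CPEB3 ribozyme libraries from rounds of error-prone PCR were transcribed with T7 RNA polymerase for 5 hours at 37°C and then given 15 min of DNase I treatment before EDTA was added. The RNAs were reverse transcribed with template switching and sequenced on Illumina, and DNA sequencing linked barcodes to variants. A minimum of 5 reads applied, and three batches were averaged.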

Variant | self-cleavage
UAACAGGGGGCCACAGCAGAAGCGUUCACCUCGCAGCCCCUGUCAGAUUCUGGUGAAUCUGCGAAUCCUGCUCUAUAUCUC | 0.19
UAACAGGGGGCCACAGCAGAAGCGUUCACUUCGCCGCCCCUGUCAGAUUCUGGUGAAUCUGCGAAUUCUGCCGAAUAUCUC | 0.05
UAACAGGGGGCCACAGCAGAAGCGUUCACUUCGCGGCCCCUGUCAGAUUCUGGUGGAUCUGCGAAUUCUGCUGUAUAUCUC | 0.19
UAACAGGGGGCCACAGCAGAAGCGUUCACUUCGCGGCCCCUGUCAGAUUCUGGUGAACCUGCGAAUUCUGCUGUAUAUCUC | 0.09
UAACAGGGGGCCACAGCAGAAGCGUUCACUUCGCUGCCCCAGUCAGAUUCUGGUGAAUCUGCGGAUUCUGCUGUAUAUCUC | 0.1
UAACAGGGGGCCACAGCAGAAGCGUUCACUUCGCUGCCCCUGUCAGACUCUGGAGAAUCUGCGAAUUCUGCUGUAUAUCUC | 0.13
UAACAGGGGGCCACAGCAGAAGCGUUCACUUCGCUGCCCCUGUCAGAUUCUGGUGAAUCUGCGAAUUCUGCUGCAUAUCUC | 0.17
UAACAGGGGGCCACAGCAGAAGCGUUCACUUCGCAGCCCCUGUCUGAUUCUGGUGAAUCCGCGAAUUCUGCUGUAUAUCUC | 0.09
UAACAGGGGGCCACAGCAGAAGCGUUCACUUCGCAGCCCCUGUCAGGUUCUGGUGAAUCUGCGAAAUCUGCUGUAUAUCUC | 0.1
UAACAGGGGGCCACAGCAGAAGCGUUCACUUCGCAGCCCCUGUCAGAUUCUGGUGAAUCUGCGCAUUCUGCUGUACAUCUC | 0.08
UAACAGGGGGCCACAGCAGAAGCGUUCACUUCGCAGCCCCUGUCAGAUUCUGGUGAAUCUGCGAGUUCUGCGGUAUAUCUC | 0.1
UAACAGGGGGCCACAGCAGAAGCGUUCACUUCGCAGCCCCUGUCAGAUUCUGGUGAAUCUGUGAAUUCUGCUGUACAUCUC | 0.08
UAACAGGGGGCCACAGCAGAAGCGUUCACUUCGCAGCCCCUGUCAGAUUCUCGAGAAUCUGCGUAUUCCGCUGUAUAUCUC | 0.14
UAACAGGGGGCCACAGCAGAAGCGUUCACUUCGCAGCCCCUGUCAGAUUCUUGUGAAUCUGCGAAUUCUGCUGUAUACCUC | 0.1
UAACAGGGGGCCACAGCAGAAGCGUUCACUACGCGGCCCCAGUCAGAUUCUGGUGAAUCUACGGAUUCUGCUGUAUAUCUC | 0.13
UAACAGGGGGCCACAGCAGAAGCGUUCACUUCGCAGCCCCAGUCAGAUUCUGGUGAAUCUGUGAAUUCAGCUGUAUAUCUC | 0.13
UAACAGGGGGCCACAGCAGAAGCGUUCACUUCGCAGCCCCAGUCAGAUCCUAGUGAAUCUGCGAAUUCUGCUGUAUAUCCU | 0.07

Variant | self-cleavage
UAACAGGGGGCCACAGCAGAAGCGUUCACUUCGCAGCCCCCGUCAGAUCCUGGUGAAUCUGCGAAUUCUACUGUAUAUCUC | 0.34
UAACAGGGGGCCACAGCAGAAGCGUUCACUUCGCAGCCCCCGUCAGAUUCCGGUGAAUCUGCGAAUUCUGCUGUAUAUCUC | 0.17
UAACAGGGGGCCACAGCAGAAGCGUUCACUUCGCAGCCCCCGUCAGAUUCUGGUGAAUCCGCGAAUUCUGCCGUAUAUCUC | 0.15
UAACAGGGGGCCACAGCAGAAGCGUUCACUUCGCAGCCCCCGUCAGAUUCUGGUGAAUCUGCGAAUUCUGCAGUAUAUCUC | 0.05
UAACAGGGGGCCACAGCAGAAGCGUUCACUUCGCAGCCCCCGUCAGAUUCUGGUGAAUCUGCGAAUUCUGCUGUAUACCUC | 0.25
UAACAGGGGGCCACAGCAGAAGCGUUCACUUCGCAGCCCCUGACGGAUUCUGGUGAAUCUGCGAAUUCUACUGAAUAUCUC | 0.07
UAACAGGGGGCCACAGCAGAAGCGUUCACUUCGCAGCCCCUGCCAGAUUCUGGUGGAUCCGCGAAUUCUGCUGUAUAUCUC | 0.37
UAACAGGGGGCCACAGCAGAAGCGUUCACUUCGCAGCCCCUGUCAGAUACUGGUGAAUCUGUGAAUUCUGCUGUAUUUCUC | 0.06
UAACAGGGGGCCACAGCAGAAGCGUUCACUUCGCAGCCCCUGUCAGAUCCUGGUGAAUCUGCGAUUUCUGCUGUAUAUCUC | 0.1
UAACAGGGGGCCACAGCAGAAGCGUUCACUUCGCAGCCCCUGUCAGAUUCUGGUGAACCUGCGAAUUCUGCUGUACGUCUC | 0.4
UAACAGGGGGCCACAGCAGAAGCGUUCACGACGCCGCCCCUGUCGGGUUCUGGUGAAUCUGCGAAUUCUGCUGUAAAUCUC | 0.24
UAACAGGGGGCCACAGCAGAAGCGUUCACGACGCGGCCCCUGUCAGAUUCUGGUGAAUCUGCGAAUUCUGCUGUAUGUCUC | 1.28
UAACAGGGGGCCACAGCAGAAGCGUUCACGACGCGGCUCCUGUCAGAUUCUGGUGAAUCUGCGAAUUCUGCGGUAUAUCUC | 1.27
UAACAGGGGGCCACAGCAGAAGCGUUCACGACGCGGCCCCUGACAGGUUCUGGUGAAUCUGCGAAUUCUGCUGUAUAUCUC | 1.17
UAACAGGGGGCCACAGCAGAAGCGUUCACGACGCGGCCCCUGCCAGAUUCUGGUGAAUCUGCGAAUUCUGCAGUAUAUCUC | 0.9
UAACAGGGGGCCACAGCAGAAGCGUUCACGACGCUGCCCCUGUCUGAUUCUGGUGAAUCUGCGAAUUCUGCCGCAUAUAUC | 0.05
UAACAGGGGGCCACAGCAGAAGCGUUCACGACGCUGCCCCUGUCAGGUUCUGGAGAAUGUGCGAAUUCUGCUGUAUAUCUC | 0.08
